According to patent US20240016784A1, “Y BOX BINDING PROTEIN 1 INHIBITORS” (Oregon Health & Science University, priority 2020, published 2024):

Tested on: OVCAR8 YBX1-shRNA1 cells
Assay: Cell viability assay, transduced OVCAR8 cells
Details: YBX1-shRNA1 and YBX1-shRNA2 vs SC cells
Source text: Cell lines: Human ovarian cancer (OC) OVCAR3, OVCAR4, OVCAR5, OVCAR8, and SKOV-3 cell lines were obtained from the NCI cell line repository (DTP). SH-SY5Y and N27 cell lines were obtained from Dr. Manish Chamoli (Buck Institute, CA, USA). ID8 and Luciferase-tagged ID8 cells were obtained from Dr. Erinn Rankin (Stanford University, CA, USA). Scrambled control (SC), YBX1 knockdown (1 & 2) and mCherry-YBX1 OVCAR8 cell lines were created using lentiviral based transduction and selected using puromycin resistance followed by cell shorting. All OVCAR cells were maintained in RPMI-1640 (Corning, USA; #10-040-CV) supplemented with 10% FBS (Corning, USA; #35-015-CV) and 1% Antibiotic-Antimycotic solution (Gibco, USA; Ser. No. 15/240,062). SKOV3 and ID8 cells were maintained in DMEM media (Corning, USA; #10-013-CV) supplemented with 10% FBS and 1% Antibiotic-Antimycotic solution. All cells were maintained at 37° C. and 5% CO2. SH-SY5Y and N27 cells were maintained in DMEM/F12 media (Hyclone, #SH30525.01) supplemented with 10% FBS and 1% Antibiotic-Antimycotic solution. […]
Cell viability assay: Cell viability was assessed using the standard MTT assay protocol. […] Absorbance at 570 nm for each well was recorded using a multimode plate reader to quantitate MTT crystallization. Each absorbance value was normalized to controls and converted into percent cell viability. […]

`O=C1OCC2=C1C(c1cccc(F)c1)c1cc3c(cc1N2CCO)OCO3` (stereo not shown) [SU056, 9-(3-fluorophenyl)-5-(2-hydroxyethyl)-6,9-dihydro-[1,3]dioxolo[4,5-g]furo[3,4-b]quinolin-8(5H)-one] was tested, and the “increase of IC50 value by YB-1 knockdown compared to SC” value was roughly 5 fold.
